In paper PMC7954794, “Protein context shapes the specificity of SH3 domain-mediated interactions in vivo” (Nature Communications, 2021):
Each block holds one binder with its values, some of them ahead of it. No end group written: not given here.

Assays:
[1] = target: T1, PAK1 peptide (DIQDKPPAPPMRNTST), fluorescein isothiocyanate-conjugated (also: fluorescein isothiocyanate-conjugated (position not given here)); experiment: fluorescence polarisation; 40 nM fluorescein isothiocyanate-conjugated peptide, NCK2 titrated (0-150 μM for CD3ε, 0-175 μM for PAK1); 17 mM Tris-HCl pH 8, 100 mM NaCl; one-site total binding model; triplicates; conditions: both partners purified
T1 construct: peptide of PAK1, ligand of NCK2 SH3-2; also called PAK1 target peptide
T1 peptide: DIQDKPPAPPMRNTST

[2] = target: the molecule itself; experiment: cell-based or functional assay
[3] = target: T2, Cd3ε peptide (RGQNKERPPPVPNPDY), fluorescein isothiocyanate-conjugated (also: fluorescein isothiocyanate-conjugated (position not given here)); experiment: fluorescence polarisation; 40 nM fluorescein isothiocyanate-conjugated peptide, NCK2 titrated (0-150 μM for CD3ε, 0-175 μM for PAK1); 17 mM Tris-HCl pH 8, 100 mM NaCl; one-site total binding model; triplicates; conditions: both partners purified
T2 construct: peptide of CD3 epsilon, ligand of NCK2 SH3-1; also called CD3Ɛ
T2 peptide: RGQNKERPPPVPNPDY

fold decrease against WT NCK2 [3]: ~2 fold
B2: NCK2 3|2|1 full-length recombinant protein (SH3-shuffled, tag-free) (other, mouse, UniProt O55033 198-256, looked up)
chain: HVVQTLYPFSSVTEEELSFEKGETMEVIEKPENDPEWWKCKNARGQVGLVPKNYVVVLSNSLKKGSLVKNLKDTLGLGKTRRKPSARDASPTPSTDAEYPANGSGADRIYDLNIPAFVKFAYVAEREDELSLVKGSRVTVMEKCSDGWWRGSFNGQIGWFPSNYVLEEADEAAAEAPSFLSLRRGTALSNGQGARVLTEEVIVIAKWDYTAQQDQELDIRKNERLWLLDDSKTWWRVRNAANRTGYVPSNYVERKDGPALHPAHTPQISYTGPSASGRFAGREWYYGNVTRHQAECALNERGVEGDFLIRDSESSPSDFSVSLKASGRNKHFKVQLVDSVYCIGQRRFHSMDELVEHYKKAPIFTSEHGEKLYLVRALQ
notes: NCK2, mouse, SH3-3; NCK2, mouse, linker 1, SH3-2 and linker 2; NCK2, mouse, SH3-1; NCK2, mouse, linker 3 and SH2; source: E. coli BL21 (DE3), purified (GSTrap, TEV cleavage, HisTrap)

binding result [3]: binds
fold decrease against WT NCK2 [1]: ~2 fold
B3: NCK2 3|1|2 full-length recombinant protein (SH3-shuffled, tag-free) (other, mouse, UniProt O55033 198-256, looked up)
chain: HVVQTLYPFSSVTEEELSFEKGETMEVIEKPENDPEWWKCKNARGQVGLVPKNYVVVLSNSLKKGSLVKNLKDTLGLGKTRRKPSARDASPTPSTDAEYPANGSGADRIYDLNTEEVIVIAKWDYTAQQDQELDIRKNERLWLLDDSKTWWRVRNAANRTGYVPSNYVERKEAAAEAPSFLSLRRGTALSNGQGARVLIPAFVKFAYVAEREDELSLVKGSRVTVMEKCSDGWWRGSFNGQIGWFPSNYVLEEADDGPALHPAHTPQISYTGPSASGRFAGREWYYGNVTRHQAECALNERGVEGDFLIRDSESSPSDFSVSLKASGRNKHFKVQLVDSVYCIGQRRFHSMDELVEHYKKAPIFTSEHGEKLYLVRALQ
notes: NCK2, mouse, SH3-3; NCK2, mouse, linker 1; NCK2, mouse, SH3-1; NCK2, mouse, linker 2; NCK2, mouse, SH3-2; NCK2, mouse, linker 3 and SH2; source: E. coli BL21 (DE3), purified (GSTrap, TEV cleavage, HisTrap)
phase separation in vitro after 24 h at 60 mM NaCl, proportion of protein in the pellet (Coomassie), relative to WT [2]: ~2 fold

binding result [3]: binds
B4: NCK2 2|1|3 full-length recombinant protein (SH3-shuffled, tag-free) (other, mouse, UniProt O55033 114-170, looked up)
chain: IPAFVKFAYVAEREDELSLVKGSRVTVMEKCSDGWWRGSFNGQIGWFPSNYVLEEADNSLKKGSLVKNLKDTLGLGKTRRKPSARDASPTPSTDAEYPANGSGADRIYDLNTEEVIVIAKWDYTAQQDQELDIRKNERLWLLDDSKTWWRVRNAANRTGYVPSNYVERKEAAAEAPSFLSLRRGTALSNGQGARVLHVVQTLYPFSSVTEEELSFEKGETMEVIEKPENDPEWWKCKNARGQVGLVPKNYVVVLSDGPALHPAHTPQISYTGPSASGRFAGREWYYGNVTRHQAECALNERGVEGDFLIRDSESSPSDFSVSLKASGRNKHFKVQLVDSVYCIGQRRFHSMDELVEHYKKAPIFTSEHGEKLYLVRALQ
notes: NCK2, mouse, SH3-2; NCK2, mouse, linker 1; NCK2, mouse, SH3-1; NCK2, mouse, linker 2, SH3-3, linker 3 and SH2; source: E. coli BL21 (DE3), purified (GSTrap, TEV cleavage, HisTrap)

Further lines, the binder ahead of its results:

B1: NCK2 1|3|2 full-length recombinant protein (SH3-shuffled, tag-free) (other, mouse, UniProt O55033 1-113, looked up)
chain: MTEEVIVIAKWDYTAQQDQELDIRKNERLWLLDDSKTWWRVRNAANRTGYVPSNYVERKNSLKKGSLVKNLKDTLGLGKTRRKPSARDASPTPSTDAEYPANGSGADRIYDLNHVVQTLYPFSSVTEEELSFEKGETMEVIEKPENDPEWWKCKNARGQVGLVPKNYVVVLSEAAAEAPSFLSLRRGTALSNGQGARVLIPAFVKFAYVAEREDELSLVKGSRVTVMEKCSDGWWRGSFNGQIGWFPSNYVLEEADDGPALHPAHTPQISYTGPSASGRFAGREWYYGNVTRHQAECALNERGVEGDFLIRDSESSPSDFSVSLKASGRNKHFKVQLVDSVYCIGQRRFHSMDELVEHYKKAPIFTSEHGEKLYLVRALQ
notes: NCK2, mouse, SH3-1 and linker 1; NCK2, mouse, SH3-3; NCK2, mouse, linker 2; NCK2, mouse, SH3-2; NCK2, mouse, linker 3 and SH2; source: E. coli BL21 (DE3), purified (GSTrap, TEV cleavage, HisTrap)
fold decrease against WT NCK2 [1]: ~2 fold
phase separation in vitro after 24 h at 60 mM NaCl, proportion of protein in the pellet (Coomassie), relative to WT [2]: ~2 fold

B5: NCK2 2|3|1 full-length recombinant protein (SH3-shuffled, tag-free) (other, mouse, UniProt O55033 114-170, looked up)
chain: IPAFVKFAYVAEREDELSLVKGSRVTVMEKCSDGWWRGSFNGQIGWFPSNYVLEEADNSLKKGSLVKNLKDTLGLGKTRRKPSARDASPTPSTDAEYPANGSGADRIYDLNHVVQTLYPFSSVTEEELSFEKGETMEVIEKPENDPEWWKCKNARGQVGLVPKNYVVVLSEAAAEAPSFLSLRRGTALSNGQGARVLTEEVIVIAKWDYTAQQDQELDIRKNERLWLLDDSKTWWRVRNAANRTGYVPSNYVERKDGPALHPAHTPQISYTGPSASGRFAGREWYYGNVTRHQAECALNERGVEGDFLIRDSESSPSDFSVSLKASGRNKHFKVQLVDSVYCIGQRRFHSMDELVEHYKKAPIFTSEHGEKLYLVRALQ
notes: NCK2, mouse, SH3-2; NCK2, mouse, linker 1; NCK2, mouse, SH3-3; NCK2, mouse, linker 2; NCK2, mouse, SH3-1; NCK2, mouse, linker 3 and SH2; source: E. coli BL21 (DE3), purified (GSTrap, TEV cleavage, HisTrap)
fold decrease against WT NCK2 [3]: ~2 fold
